# Reference: PubChem BioAssay AID504466 (National Center for Advancing Translational Sciences (NCATS), 2011)
# Out of some 330,000 compounds screened, about 4,200 (1.3%) were called active. The shares of active, inactive and inconclusive entries below differ from those in the screen. The call rests on the fitted dose curve; in most records, active means well fitted activation curve with a large enough effect; inconclusive means small, poorly fitted or top-dose-only effect; inactive means no such curve, though single readings can be large or run the other way. Potencies beside an inconclusive call are fits to weak or partial responses and may not hold up.
# Experiment: qHTS screen for small molecules that induce genotoxicity in human embryonic kidney (HEK293T) cells expressing luciferase-tagged ELG1; further: nearly all actives have a fitted effect of over 60% in size
# Settings: HEK293T ELG1-luciferase reporter, luminescence, 16 h; series mostly up to 46 µM
# Method in brief: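 Luminescence read-out: rising ELG1-luciferase signal, reflecting elevated ELG1 protein under genetic stress, flags genotoxic compounds. Cells were treated for 16 hr at 37 °C before ONE-Glo detection.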
# Potency means the concentration at half of the fitted maximal effect; tags describe the fitted curve by direction and shape.
row,SMILES,Potency
1,O=C(CSc1nnc(-c2ccccc2O)o1)N1CCc2ccccc2C1,inactive
2,Cc1nnc(SCC(=O)Nc2cccc(S(=O)(=O)N3CCCCC3)c2)s1,inactive
3,COc1cc(SC)ccc1C(=O)Nc1ncc(Cl)cc1Cl,"inconclusive: 12.6 µM [activator, partial curve]"
4,CC1CCCN(C(=O)COc2ccc3c(c2)OCO3)C1 (stereo unspecified),"inconclusive: 8.2 µM [activator, single point]"
5,O=C(CCCc1ccccc1)Nc1cccc([N+](=O)[O-])c1,"inconclusive: 29.1 µM [activator, partial curve, poor fit]"
6,c1ccc(COc2ccc(CNn3cnnc3)cc2)cc1,"inconclusive: 14.6 µM [activator, partial curve, poor fit]"
7,Cc1ccc2oc(-c3ccccc3)c(C(=O)O)c(=O)c2c1,"inconclusive: 2.91 µM [activator, partial curve, poor fit]"
8,O=C(CSc1ncnc2c1cnn2-c1ccccc1)NC1CCCC1,"inconclusive: 23.1 µM [activator, single point]"
9,CC(C)(C)OC(=O)NCCCC[C@@H](C(=O)NCCCCCCCCCCC(=O)N1CCN(C(=O)OC(C)(C)C)CC1)n1cc(CCO)nn1,inactive
10,CCc1ccc2c(c1)C(=O)C[C@]1(CCC[C@H](C)C1)O2,"inconclusive: 25.9 µM [activator, single point]"
11,CCOC(=O)/C=c1\s/c(=C\c2ccc3cc(OC)ccc3c2)c(=O)n1CC(=O)NCc1ccc2c(c1)OCO2,"inconclusive: 16.4 µM [activator, single point]"
12,CCc1sc(C(=O)NNC(=O)c2cncc(Br)c2)cc1C,inactive
13,C(=N\c1nc2ccccc2n1Cc1ccccc1)/c1cccs1,inactive
14,COC(=O)c1cn[nH]c1NC(=S)Nc1ccccc1C,"inconclusive: 7.31 µM [activator, partial curve, poor fit]"
15,O=C(N/N=C/c1ccc2c(c1)OCO2)c1cccc(NC(=O)c2ccccc2Cl)c1,"inconclusive: 9.2 µM [activator, partial curve]"
16,Cc1ccc(C(=O)COC(=O)c2ccc(O)cc2)cc1,"inconclusive: 11.6 µM [activator, partial curve]"
17,CC(=O)N1CCN(c2ccc(NC(=O)c3ccco3)cc2Cl)CC1,"inconclusive: 4.11 µM [activator, partial curve, poor fit]"
18,COCc1cc(C)nc(SCC(=O)Nc2ccc3[nH]c(=O)[nH]c3c2)c1C#N,"inconclusive: 29.1 µM [activator, single point]"
19,CC(=O)c1cccc(NC(=O)c2cnn(-c3ccccc3)c2C)c1,"inconclusive: 16.4 µM [activator, partial curve]"
20,Cc1cc(C)c(C#N)c(SCC(=O)Nc2cc(C)on2)n1,active: 18.3 µM
21,NC1=C([N+](=O)[O-])C(c2ccc(F)cc2)C2=C(CCCC2=O)O1 (stereo unspecified),inactive
22,O=C(NCCC1=CCCCC1)c1cc2ccccc2oc1=O,"inconclusive: 23.1 µM [activator, single point]"
23,O=C(NNC(=O)c1ccccc1F)c1ccc2nc[nH]c2c1,"inconclusive: 16.4 µM [activator, single point]"

row,SMILES,Potency
1,Cc1ccc(-c2nnn(CC(=O)N(CCN3CCOCC3)C(C(=O)NC(C)(C)C)c3ccc(C)o3)n2)cc1 (stereo unspecified),inactive
2,CSc1nc2sc3c(c2c(=O)n1C)CCCC3,"inconclusive: 18.4 µM [activator, single point]"
3,Brc1ccc(/C=N/Nc2ccccn2)cc1,"inconclusive: 5.8 µM [activator, full curve, poor fit]"
4,CCc1[nH]nc(C(=O)N/N=C/c2ccncc2)c1C,active: 23.1 µM
5,NC(=O)c1ccc(NC(=O)CSc2nnc(-c3ccncc3)n2Cc2ccco2)cc1,inactive
6,COc1ccc(NC(=S)Nc2ccc(Oc3ccccc3)cc2)cc1,inactive
7,COC(=O)CN1C(=O)S/C(=C/c2cc(C)n(C)c2C)C1=O,"inconclusive: 18.4 µM [activator, partial curve]"
8,COc1cc(C2Nc3ccc4ncccc4c3C3=C2C(=O)CC(C)(C)C3)cc(OC)c1O (stereo unspecified),"inconclusive: 20.6 µM [activator, partial curve]"
9,COc1ccc(C(C(=O)NC2CCCC2)N(Cc2cccnc2)C(=O)Cc2cccs2)c(OC)c1 (stereo unspecified),inactive
10,CN1Cc2sc(NC(=S)NC(=O)c3ccccc3)c(C#N)c2CC1(C)C,"inconclusive: 2.91 µM [activator, full curve, poor fit]"
11,O=C(CC1CCCC1)Nc1ccc2c(c1)CCC2,"inconclusive: 13 µM [activator, partial curve, poor fit]"
12,COc1ccc(OCC(O)Cn2c(Nc3ccccc3)nc3c2c(=O)n(C)c(=O)n3C)cc1 (stereo unspecified),inactive
13,O=C(NC(=O)c1ccccc1)NC1(C(F)(F)F)OCCO1,"inconclusive: 6.51 µM [activator, partial curve]"
14,Cn1nc2c3ccccc3n(Cc3ccccc3)c2nc1=S,"inconclusive: 25.9 µM [activator, partial curve, poor fit]"
15,CC1=Nc2cc(C(=O)N3CCCC3)ccc2Sc2c(C)ccc(C)c21,inactive
16,Fc1cccc(NCc2cn3ccccc3n2)c1,active: 2.31 µM
17,Cn1nc(-c2ccc(Cl)cc2)c2cc(C(=O)NCCCN3CCCC3)sc21,"inconclusive: 18.4 µM [activator, partial curve, poor fit]"
18,Cc1cc(F)ccc1S(=O)(=O)Nc1ccccc1C(=O)NC1CCN(Cc2ccccc2)CC1,inactive
19,O=C(N/N=C/c1cnc2ccccc2n1)c1cccc(F)c1,"inconclusive: 23.1 µM [activator, partial curve, poor fit]"
20,COc1ccccc1OCC(=O)Nc1ccccn1,active: 2.06 µM
21,O=[N+]([O-])c1ccc(N/N=C/c2cccc(O)c2)cc1,"inconclusive: 16.4 µM [activator, partial curve]"
22,CCN(CC(=O)Nc1ccccc1C(F)(F)F)C(=O)c1ccc2[nH]c3c(c2c1)CC(C)CC3 (stereo unspecified),inactive
23,Cc1cc(C)cc(OCC(=O)OC/C(O)=C(\C#N)c2nc3ccccc3[nH]2)c1,"inconclusive: 29.1 µM [activator, single point]"
